Test results reported in PubChem BioAssay AID686979 (National Center for Advancing Translational Sciences (NCATS), 2013).
Values joined by “and” are separate entries in the source; they are usually repeats but may differ in a detail not shown here. Equal values may be shown once. In all, about 420,000 compounds went through this assay and about 50,000 (12%) were called active. Inconclusive results, whose numbers are uncertain, are shown with a selection of clear calls. The call rests on the fitted dose curve; in most records, active means well fitted inhibition curve with a large enough effect; inconclusive means small, poorly fitted or top-dose-only effect; inactive means flat fitted curve, though single readings scatter. No potency is given beside an inconclusive call; the fits are too rough.

test: qHTS for Inhibitors of human tyrosyl-DNA phosphodiesterase 1 (TDP1): qHTS in cells in presence of CPT; conditions: chicken DT40 Tdp1-/-;hTDP1 cells + 20 nM CPT, ATP luminescence, 48 h; activity change, negative = growth inhibition: at 46.2 µM (top of the series) unless noted; further: nearly all actives have a fitted effect of over 55% in size
Procedure, shortened: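 Chicken DT40 Tdp1-/- cells complemented with human TDP1, 400 cells/well, exposed to compounds plus 20 nM camptothecin for at least 48 h at 37 C; viability read as ATP content by CellTiter-Glo luminescence.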
On the % scale 0 is the no-effect control and ±100 the full control effect; potency means the concentration at half of the fitted maximal effect; tags describe the fitted curve by direction and shape.

| Structure (SMILES) | Potency | activity change, negative = growth inhibition |
| --- | --- | --- |
| Cc1ccc(-c2cc(C(=O)N3CCCC(C(F)(F)F)C3)c3ccccc3n2)o1 (stereo not given) | inconclusive [inhibitor, single point] |  |
| CCC1CCc2c(sc(NC(=O)C3c4ccccc4Oc4ccccc43)c2C#N)C1 (stereo not given) | inconclusive [inhibitor, single point] |  |
| CCN(CC(=O)Nc1ccc2c(c1)OCCO2)S(=O)(=O)c1ccc(F)cc1 | inactive |  |
| Cc1cc(Nc2cc(Cl)ccc2C)n2nc(Cc3ccccc3)nc2n1 | inconclusive [inhibitor, single point] |  |
| CCOC(=O)c1ccc(Nc2nc(C(=O)OCC)nc3ccccc23)cc1 | active: 4.11 µM and active: 5.8 µM |  |
| CCC(=O)Nc1cccc(-n2nnnc2SCC(=O)c2ccc(C)c(C)c2)c1 | inconclusive [inhibitor, single point] |  |
| C=CCn1c(CCCNC(=O)c2ccccc2OC)nc2ccccc21 | inconclusive [inhibitor, single point] |  |
| CC(=O)Nc1nonc1-c1nc2ccccc2n1Cc1ccccc1 | inconclusive [inhibitor, single point] |  |
| COc1ccc(CNC(=O)Cc2coc3ccc(C(C)C)cc23)cc1 | inconclusive [inhibitor, single point] |  |
| Cc1cc(C)c(S(=O)(=O)NCC(c2ccc(N(C)C)cc2)N2CCc3ccccc32)c(C)c1 (stereo not given) | active: 18.4 µM |  |
| Cc1ccccc1C(=O)NNC(=S)NC(=O)c1ccc(Cl)cc1Cl | inconclusive [inhibitor, single point] |  |
| O=C1/C(=C/c2ccc(Cl)cc2)NC(=S)N1Cc1cccnc1 |  | inconclusive: -33.7% [inhibitor] |
| CCCOc1ccccc1C1CC(=O)Nc2cc3c(cc21)OCCO3 (stereo not given) | active: 0.731 µM |  |
| CCOc1ccc(CCN2C(=S)N([C@@H](CC(C)C)CN3CCCC3CN3C(=S)NC[C@@H]3CC(C)C)C[C@@H]2Cc2ccc(O)cc2)cc1 (stereo not given in full) | active: 18.4 µM |  |
| O=S(=O)(c1ccccc1)N(c1ccccc1)S(=O)(=O)c1ccccc1 | inconclusive [inhibitor, partial curve, poor fit] |  |
| CCN1CCN(c2ccc(S(=O)(=O)N3CCOCC3)cc2NC(=O)CC(C)C)CC1 | inactive |  |
| COc1cccc(Cn2c(=O)c(-c3ccccc3)nc3cnc(N4CCNCC4)nc32)c1 | inconclusive [inhibitor, single point] |  |
| CCCn1c(O)c(/C=C2\C=NN=C2c2ccccc2)sc1=S | inactive |  |
| COc1ccccc1Nc1nc2ccc(C)cc2n2cnnc12 | inconclusive [inhibitor, single point] |  |
| COc1cccc(-c2cc(C(F)(F)F)c(C#N)c(=O)[nH]2)c1 | inconclusive [inhibitor, partial curve] |  |
| COc1ccccc1NC(=O)CSc1oc(-c2ccco2)nc1S(=O)(=O)c1ccc(Br)cc1 | inconclusive [inhibitor, partial curve, poor fit] |  |
| CC1Cc2ccccc2N1CC(=O)NCc1ccccc1Cl (stereo not given) | inconclusive [inhibitor, single point] |  |
| COc1cccc(Nc2nnc(Cc3cccnc3)c3ccccc23)c1 | inactive |  |
| C=CCNC(=O)CC1C(=O)NCCN1Cc1ccc(-c2ccccc2)cc1 (stereo not given) | inconclusive [inhibitor, single point] |  |

| Structure (SMILES) | Potency | activity change, negative = growth inhibition |
| --- | --- | --- |
| Cc1ccc(S(=O)(=O)N2CCOCC2)cc1C(=O)N(C)CCOc1ccc(Cl)cc1 | inconclusive [inhibitor, single point] |  |
| Cc1cc(OCC(=O)Nc2ccncc2)cc(C)c1Br | inconclusive [inhibitor, partial curve] |  |
| O=C(COc1cccc2c1CCN(Cc1ccc(Cl)cc1)C2=O)N1CCOCC1 | inconclusive [inhibitor, single point] |  |
| CCCNC(=O)c1c(N)n(-c2cccc(OC)c2)c2nc3ccccc3nc12 | inconclusive [inhibitor, single point] |  |
| COc1ccc(CCN(C)C(=O)c2cc(-c3ccccc3)nc3ccccc23)cc1OC | inconclusive [inhibitor, single point] |  |
| CCc1nc2ccc(C(=O)NCCN3CCNC3=O)cn2c1N(CC)CCOC | inactive |  |
| C[C@@H]1COC(=O)[C@@H](CC(=O)OC(C)(C)C)C/C=C\C[C@H](CC(=O)N(CCO)Cc2ccccc2)C(=O)N1 | inconclusive [inhibitor, partial curve] |  |
| CCCCCCCC(=O)NNC(=O)c1c(O)c2ccccc2n(CCC)c1=O | inconclusive [inhibitor, single point] |  |
| COc1cccc(CNC(=O)CCc2nc(-c3ccc(C)cc3)no2)c1 | inconclusive [inhibitor, single point] |  |
| O=C(CSc1nnc(-c2cccs2)o1)NCc1ccco1 | inactive |  |
| COc1ccc(NC(=O)N2CCCC(C(=O)NCCc3ccccc3)C2)cc1 (stereo not given) | inconclusive [inhibitor, single point] |  |
| Cc1cc(C(=O)CSc2ncccn2)c(C)n1-c1cccc(F)c1 | inactive |  |
| Cc1ccc(NC(=O)CN(C)CC(=O)Nc2cccc(F)c2)cc1S(=O)(=O)N1CCCCCC1 | inconclusive [inhibitor, single point] |  |
| COc1cccc2c3c(c(C)nc12)CCN3c1ccccc1 | inconclusive [inhibitor, partial curve] |  |
| Clc1ccc(C2=C3CCCCn4c(-c5ccccc5)c[n+](c43)C2)cc1 | inconclusive [inhibitor, single point] |  |
| COC(=O)[C@H](CC(C)C)NC(=O)N1CCN(c2cccc(C(F)(F)F)c2)CC1 |  | inconclusive: -32% [inhibitor] |
| COc1ccc(S(=O)(=O)N(CC(=O)N2CCCC2)Cc2ccccc2)cc1 | inconclusive [inhibitor, single point] |  |
| CCCC1NC(=O)c2cc3ccccc3cc2-n2c1nc1cc(Cl)ccc1c2=O (stereo not given) | inconclusive [inhibitor, single point] |  |
| O/N=C(/CCc1ccccc1)C1(O)CCCCC1 | inconclusive [inhibitor, partial curve] |  |
| CCOc1ccc(NC(=O)c2csc3c2CCCC3)cc1 | inconclusive [inhibitor, partial curve] |  |
| c1cncc(-c2cncnc2-n2ccnc2)c1 | inactive |  |
| O=C(Nc1ccc(Oc2cccnc2)cc1)C1CCCCN1Cc1ccc(CO)o1 (stereo not given) | inactive |  |
| CC(=O)c1cccc(NCC(=O)Nc2cc(S(=O)(=O)N3CCCCC3)ccc2C)c1 | active: 16.4 µM |  |
| Cc1ccc2nsnc2c1NC(=O)c1ccc([N+](=O)[O-])o1 | inconclusive [inhibitor, single point] |  |

| Structure (SMILES) | Potency | activity change, negative = growth inhibition |
| --- | --- | --- |
| Cc1ccc(C2(c3ccc(C)cc3)NC(=O)N(Cc3c(C)noc3C)C2=O)cc1 | inconclusive [inhibitor, single point] |  |
| O=S(=O)(NCc1ccccc1Cl)c1cccs1 | inactive |  |
| CCc1nc(NCC2CCCO2)c(C#N)c2c1COC(C)(C)C2 (stereo not given) | inconclusive [inhibitor, single point] |  |
| COc1cccc(/C=N/NC(=S)NCCc2ccccc2)c1 | inconclusive [inhibitor, single point] |  |
| O=C(O)c1cnc(-c2ccccc2)nc1-c1ccccc1 | inactive |  |
| O=C1CSC(=S)N1N=Cc1ccc(OCc2ccccc2)cc1 | inconclusive [inhibitor, single point] |  |
| COc1ccc(N2CCN(c3nc4c(C)cccn4c(=O)c3/C=C(\C#N)C(N)=O)CC2)cc1 | inconclusive [inhibitor, single point] |  |
| N=c1sccn1CC(=O)Nc1ccccc1Cc1ccccc1 | inconclusive [inhibitor, partial curve] |  |
| COc1ccc(-n2nnnc2C(c2cccc(OC)c2OC)N2CCN(C/C=C/c3ccccc3)CC2)cc1 (stereo not given) | active: 23.1 µM |  |
| Fc1ccc(N2CCN(Cc3cnc(Cl)s3)CC2)cc1 | inactive |  |
| CCOC(=O)C1=C(CN2CCN(c3cc(C)ccc3C)CC2)NC(=O)NC1c1ccccc1 (stereo not given) | inconclusive [inhibitor, single point] |  |
| O=S(=O)(c1cc(Cl)ccc1Cl)N1CCCC1 | inactive |  |
| CC1CN(C(=O)CCC(=O)NCc2cccs2)c2cc(Cl)ccc2O1 (stereo not given) | inconclusive [inhibitor, single point] |  |
| CC(O)CCC(=O)NCCNC(=O)CCC(C)O (stereo not given) | active: 25.9 µM |  |
| COc1ccc(N(C(=O)c2ccccc2C)S(=O)(=O)c2ccc(C)cc2)cc1 | active: 11.6 µM |  |
| O=C(c1ccccc1)c1cccc[n+]1[O-] | inactive |  |
| Cc1noc(C)c1COc1ccccc1C(=O)N(C)CC(=O)Nc1ccc(F)c(F)c1F | inactive |  |
| COc1ccc(-n2cc(C(=O)NCc3ccc(Cl)cc3)c3ccccc3c2=O)cc1 | inconclusive [inhibitor, partial curve] |  |
| CS(=O)(=O)c1ccc2nc(NC(=O)c3ccco3)sc2c1 | inconclusive [inhibitor, single point] |  |
| O=C(/C=C/c1ccc(C(F)(F)F)cc1)OC(C(=O)NC1CC1)c1ccccc1 (stereo not given) | inconclusive [inhibitor, single point] |  |
| Nc1c(Cl)ncnc1NCc1ccccc1 | inconclusive [inhibitor, partial curve] |  |
| CC(C)(C)NCC(O)COc1ccc(NC(=O)NC2CCCCC2)cc1 (stereo not given) | inconclusive [inhibitor, single point] |  |
